In PMC7822861, “A functional family of fluorescent nucleotide analogues to investigate actin dynamics and energetics” (Nature Communications, 2021):

Key:
Rabbit muscle actin [1] = biological target: T1, Rabbit muscle actin (rabbit, UniProt P68135); assay: fluorescence polarisation; steady-state fluorescence anisotropy of KU560 (excitation 555 nm, emission 650 nm); 0.5 µM KU560-profilin or 2 µM KU560-ADF/cofilin titrated with increasing concentrations of G-actin pre-incubated 150 min with a 5-fold excess of ATP-ATTO-488 (88% occupancy); G-buffer, room temperature; conditions: both partners purified
Rabbit muscle actin [2] = biological target: T1, Rabbit muscle actin; assay: fluorescence polarisation; steady-state fluorescence anisotropy of KU560 (excitation 555 nm, emission 650 nm); 0.5 µM KU560-profilin or 2 µM KU560-ADF/cofilin titrated with increasing concentrations of G-actin bound to ATP (control pre-incubated with ATP); G-buffer, room temperature; conditions: both partners purified

Kd (Rabbit muscle actin [1]): 1600 ± 300 nM
Kd (Rabbit muscle actin [2]): 1700 ± 500 nM
B1: KU560-labeled S. cerevisiae ADF/cofilin (Cof1p) D34C (natural protein)
chain: not shown
modifications: KU560 rigid maleimide dye (the D34C construct was used for this labeling)
notes: also called KU560-ADF/cofilin; KU560-Cof1; source: E. coli Rosetta 2(DE3)pLysS, purified (Nickel-Sepharose, eluted by TEV cleavage); not shown: His6, N-terminal, cleaved
